# Measured values published in PubChem BioAssay AID720542 (National Center for Advancing Translational Sciences (NCATS), 2013).
# The whole screen tested about 360,000 compounds, of which about 740 (0.21%) were called active. The inconclusive results got no clear call from the source; some entries with a clear call stand among them for comparison. Calls follow the shape of the dose curve; as a rule, active = well fitted inhibition curve with a large enough effect; inconclusive = small, poorly fitted or top-dose-only effect; inactive = no such curve, though single readings can be large or run the other way. No potency is given beside an inconclusive call; the fits are too rough.
# Test system: Plasmodium falciparum AMA1 (3D7) - RON2 peptide interaction
# Test: qHTS for Inhibitors of AMA1-RON; Towards Development of Antimalarial Drug Lead: Primary Screen; also: nearly all actives have a fitted effect of over 45% in size;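 as to activity change, negative = inhibition: 0% = vehicle wells and -100% = peptide control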
# Details: AlphaScreen AMA1-biotinylated RON2 peptide binding; activity change, negative = inhibition: at 58.2 µM (top of the series) unless noted
# Method in brief: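 AMA1 (3D7) with his tag at 25 nM final met compounds first, then biotinylated RON2 peptide at 25 nM; detection used donor plus acceptor beads, 10 µg/mL apiece, read by AlphaScreen after 30 min at room temperature.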
# Potency is read from the fitted curve at half-maximal effect; tags tell the direction and shape of the fitted curve.
Structure (SMILES),"activity change, negative = inhibition",Potency
Cc1nc(N2CCN(C)CC2)c2c3c(sc2n1)CCCC3,inactive: -1.69%,–
COc1ccc2c(c1)C(C)(Cc1ccc(C(=O)c3ccccc3)cc1)C(=O)N2 (configuration not stated),–,"inconclusive [inhibitor, single point]"
O=c1oc(Cl)c(Cl)c2ccccc12,–,"inconclusive [inhibitor, single point]"
CCN1C(=O)/C(=C/c2ccc(N3CCCC3)cc2)NC1=S,–,"inconclusive [inhibitor, single point]"
COc1ccc(OC)c2[nH]c(=O)c(CCNS(=O)(=O)c3ccc(F)cc3)cc12,inactive: -2.4%,–
COc1ccccc1CNc1ccc(N2CCCCC2)cc1,–,"inconclusive [inhibitor, single point]"
COC(=O)[C@@]1(C)[C@H]2C(=O)N(Cc3ccccc3)C(=O)[C@H]2[C@H]2CN=C(SCc3ccccc3)N21,inactive: -15%,–
O=C(Cn1cccc1C(=O)c1ccccc1)NCc1ccc(Cl)cc1,–,"inconclusive [inhibitor, single point]"
N#Cc1nc(COc2ccc(F)cc2)oc1N1CCCC1,–,"inconclusive [inhibitor, full curve, poor fit]"
N#Cc1nc(-c2cccs2)oc1N1CCN(Cc2ccccc2)CC1,–,"inconclusive [inhibitor, partial curve]"
COc1ccccc1N1CCN(/N=C/c2ccc(Cl)c([N+](=O)[O-])c2)CC1,–,"inconclusive [inhibitor, partial curve]"
COc1ccccc1N1CCN(Cc2ccco2)CC1,–,"inconclusive [inhibitor, partial curve]"
COc1ccc(C(=S)N2CCN(c3ccccc3C)CC2)cc1OC,–,"inconclusive [inhibitor, partial curve]"
O=S(=O)(NCC1CCCO1)c1ccc(-c2ccc(Cl)cc2)cc1 (configuration not stated),inactive: -7.98%,–
N#CC(C(=O)NC1CCCCC1)=C1CCCCCC1,inactive: 10.5%,–
CCCC(=O)N1c2ccccc2C(=C2SC(C(=O)OC)=C(C(=O)OC)S2)C(=S)C1(C)C,inconclusive: -17.8% [inhibitor],–
COc1ccc(CCn2c(=N)c(C(=O)NC3CCCC3)cc3c(=O)n4cccc(C)c4nc32)cc1,inactive: 1.72%,–
CCOC(=O)CSc1nc2cc(C(=O)OC)ccc2c(=O)n1CCN1CCOCC1,inactive: 2.38%,–
Cc1cccc(C)c1Nc1nnc(SCC(=O)NCc2cccs2)s1,inactive: 7.92%,–
CCCN1C(=O)/C(=C2\SC(N3CCCCC3)=NC2=O)c2ccccc21,–,"inconclusive [inhibitor, single point]"
Cc1csc(SCC(=O)Nc2ccc(C)c(F)c2)n1,inactive: 3.98%,–
NS(=O)(=O)c1ccc(CNC(=O)c2cc(-c3cccnc3)nc3ccc(Br)cc23)cc1,inactive: 14.8%,–
O=C(NCc1ccccc1)NC1CCS(=O)(=O)C1 (configuration not stated),–,"inconclusive [inhibitor, full curve, poor fit]"
CCOc1ccc(NC(=O)COc2ccccc2)c([N+](=O)[O-])c1,–,"inconclusive [inhibitor, partial curve]"

Structure (SMILES),"activity change, negative = inhibition",Potency
COc1ccccc1N1CCN(CCc2c[nH]c3cc4c(cc23)OCO4)CC1,–,"inconclusive [inhibitor, partial curve]"
CCCCCNCc1ccc(Cl)cc1,inactive: -2.32%,–
Cc1ccccc1CN1CCN(C(=O)c2cccc3ccccc23)CC1,–,active: 25.1 µM
CC(C)n1cc(CN2CCCC(C(=O)Nc3cccc(-c4cc5ccccc5[nH]4)c3)C2)cn1 (configuration not stated),–,"inconclusive [inhibitor, partial curve]"
COc1ccc(Cl)cc1C(=O)NCC(c1ccco1)N1CCCC1 (configuration not stated),inactive: -9.85%,–
Cc1ccnc(N2CCC(C(=O)NNC(=O)COc3cccc4ccccc34)CC2)n1,–,"inconclusive [inhibitor, full curve]"
CC1(C)c2ssc(=S)c2-c2ccccc2N1C(=O)CSC1=NCCS1,–,"inconclusive [inhibitor, partial curve]"
CSc1ccccc1C(=O)C1CCCN(C(=O)c2ccc(N3CCOCC3)cc2)C1 (configuration not stated),inactive: 10%,–
CCN(CC)CC(=O)Nc1ccc2c(c1)Nc1ccccc1CC2,–,"inconclusive [inhibitor, single point]"
Oc1c(C2=NCCNC(C(F)(F)F)=C2)ccc2ccccc12,–,"inconclusive [inhibitor, partial curve]"
Cc1cc(C(=O)N/N=C/c2c(C)[nH]n(-c3ccccc3)c2=O)n[nH]1,inactive: -39.7%,–
N#Cc1nc(COc2ccccc2)oc1N1CCCCCC1,–,"inconclusive [inhibitor, partial curve]"
COc1ccc(Nc2cc(C)nc(NCc3ccccc3)n2)cc1,–,"inconclusive [inhibitor, partial curve]"
Cn1ccc2c(N3CCCCCC3)cc3c(c21)C1CCC3C1 (configuration not stated),–,"inconclusive [inhibitor, partial curve]"
CCCCCCn1c(C)nc2c(c1=O)c1nc3ccccc3nc1n2/N=C/c1ccco1,–,"inconclusive [inhibitor, single point]"
CCCCN1C(=O)NC2NC(=O)NC21 (configuration not stated),–,active: 3.55 µM
CCn1c(SCC(=O)Nc2nc(C)c(C(=O)OC)s2)nnc1C(C)C,–,"inconclusive [inhibitor, single point]"
COc1cc(C2NC(=O)NC(C)=C2C(=O)OC2CCC(C)CC2)ccc1O (configuration not stated),inactive: -7.98%,–
CCN(CC)CCOc1ccc(/C(=C(\Cl)c2ccccc2)c2ccccc2)cc1,–,"inconclusive [inhibitor, single point]"
CC1CCN(C(=O)c2cc(Cl)ccc2NC(=O)c2ccco2)CC1,inactive: 2.87%,–
COc1cccc(N2CC(C(=O)Nc3nnc(SCC(=O)c4ccccc4)s3)CC2=O)c1 (configuration not stated),–,"inconclusive [inhibitor, partial curve]"
O=C(c1ccc(N2CCCCC2)c([N+](=O)[O-])c1)N(Cc1ccccc1)c1ccccn1,–,"inconclusive [inhibitor, partial curve]"
Cc1nc(Nc2cc(F)ccc2C)c2nnn(Cc3ccccc3)c2n1,inactive: -0.446%,–
